Laboratory results reported in PMC11864811.
Results are given in words; binding and its absence hold for the method and conditions named. Binding seen in cells or lysates may run through a third protein. Some binding calls cover weakened binding; strength is not graded here.

Chains of the proteins cited; added tags and fusions are not shown.
UniProt O15527: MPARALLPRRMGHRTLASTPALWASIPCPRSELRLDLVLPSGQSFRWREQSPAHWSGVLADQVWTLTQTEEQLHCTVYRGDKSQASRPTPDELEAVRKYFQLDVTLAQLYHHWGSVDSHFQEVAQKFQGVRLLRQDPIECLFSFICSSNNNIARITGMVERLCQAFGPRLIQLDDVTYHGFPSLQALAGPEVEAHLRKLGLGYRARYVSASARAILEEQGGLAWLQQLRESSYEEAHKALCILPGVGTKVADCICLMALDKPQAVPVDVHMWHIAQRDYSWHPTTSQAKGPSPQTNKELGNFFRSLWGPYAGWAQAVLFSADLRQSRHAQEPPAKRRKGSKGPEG
UniProt P09874: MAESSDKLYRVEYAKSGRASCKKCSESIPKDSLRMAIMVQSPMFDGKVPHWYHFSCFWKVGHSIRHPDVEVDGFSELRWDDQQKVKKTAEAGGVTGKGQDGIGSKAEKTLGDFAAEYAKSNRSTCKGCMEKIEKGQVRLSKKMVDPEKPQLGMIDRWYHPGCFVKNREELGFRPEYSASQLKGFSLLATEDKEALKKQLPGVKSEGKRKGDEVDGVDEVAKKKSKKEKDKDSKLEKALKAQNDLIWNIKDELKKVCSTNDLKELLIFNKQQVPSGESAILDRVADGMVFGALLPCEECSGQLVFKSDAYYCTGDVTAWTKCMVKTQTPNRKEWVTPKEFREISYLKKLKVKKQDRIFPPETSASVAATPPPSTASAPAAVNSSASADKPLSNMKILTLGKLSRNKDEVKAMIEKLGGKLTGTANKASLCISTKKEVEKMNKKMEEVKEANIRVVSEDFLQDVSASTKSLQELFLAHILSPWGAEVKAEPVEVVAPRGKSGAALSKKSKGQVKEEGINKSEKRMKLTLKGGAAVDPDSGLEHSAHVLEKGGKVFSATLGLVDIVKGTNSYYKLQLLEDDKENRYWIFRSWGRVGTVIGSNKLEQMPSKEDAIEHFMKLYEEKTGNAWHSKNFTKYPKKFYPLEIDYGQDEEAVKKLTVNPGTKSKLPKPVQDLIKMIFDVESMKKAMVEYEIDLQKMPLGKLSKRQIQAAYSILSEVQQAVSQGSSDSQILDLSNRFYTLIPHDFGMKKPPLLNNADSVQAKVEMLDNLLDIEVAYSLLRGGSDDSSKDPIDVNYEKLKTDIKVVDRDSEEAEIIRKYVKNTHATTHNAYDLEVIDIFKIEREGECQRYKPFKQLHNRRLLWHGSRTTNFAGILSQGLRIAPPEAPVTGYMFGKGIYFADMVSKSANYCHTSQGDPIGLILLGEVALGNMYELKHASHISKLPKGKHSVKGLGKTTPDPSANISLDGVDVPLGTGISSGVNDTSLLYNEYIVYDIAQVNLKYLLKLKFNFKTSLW
UniProt P18887: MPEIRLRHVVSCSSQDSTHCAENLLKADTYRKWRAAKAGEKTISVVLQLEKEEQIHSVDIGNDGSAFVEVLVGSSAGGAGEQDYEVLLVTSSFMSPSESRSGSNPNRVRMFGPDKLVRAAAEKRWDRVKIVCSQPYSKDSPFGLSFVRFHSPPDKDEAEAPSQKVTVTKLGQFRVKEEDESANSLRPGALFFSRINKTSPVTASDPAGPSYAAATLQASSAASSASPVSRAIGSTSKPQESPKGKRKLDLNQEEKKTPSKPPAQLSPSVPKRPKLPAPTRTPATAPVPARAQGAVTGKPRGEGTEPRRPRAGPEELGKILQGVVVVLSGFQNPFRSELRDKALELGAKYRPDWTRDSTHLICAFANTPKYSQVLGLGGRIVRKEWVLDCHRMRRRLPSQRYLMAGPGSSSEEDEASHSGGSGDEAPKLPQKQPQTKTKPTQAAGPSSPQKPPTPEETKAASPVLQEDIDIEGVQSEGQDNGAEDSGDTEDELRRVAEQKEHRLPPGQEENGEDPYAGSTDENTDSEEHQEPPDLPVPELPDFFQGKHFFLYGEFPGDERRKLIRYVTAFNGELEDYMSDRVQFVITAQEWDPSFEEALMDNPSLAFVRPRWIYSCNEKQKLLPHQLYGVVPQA

How the values were obtained:
Assay in all cases: proximity ligation; Duolink PLA in fixed HeLa 1.2.11 cells with antibodies to the endogenous proteins, against single antibody controls; untreated or 200 μM H2O2 for 2 h before fixation
[1] = target: 8-oxo-guanine glycosylase (OGG1), endogenous (human (endogenous in HeLa and HEK293T)) (UniProt O15527)
[2] = target: PARP1, endogenous (human (endogenous in HeLa)) (UniProt P09874)
[3] = target: XRCC1, endogenous (human (endogenous in HeLa)) (UniProt P18887)

binding [1]: binds
binding [2]: binds
binding [3]: binds
B1: STN1, endogenous (protein, UniProt Q9H668 1-368)
chain: MQPGSSRCEEETPSLLWGLDPVFLAFAKLYIRDILDMKESRQVPGVFLYNGHPIKQVDVLGTVIGVRERDAFYSYGVDDSTGVINCICWKKLNTESVSAAPSAARELSLTSQLKKLQETIEQKTKIEIGDTIRVRGSIRTYREEREIHATTYYKVDDPVWNIQIARMLELPTIYRKVYDQPFHSSALEKEEALSNPGALDLPSLTSLLSEKAKEFLMENRVQSFYQQELEMVESLLSLANQPVIHSASSDQVNFKKDTTSKAIHSIFKNAIQLLQEKGLVFQKDDGFDNLYYVTREDKDLHRKIHRIIQQDCQKPNHMEKGCHFLHILACARLSIRPGLSEAVLQQVLELLEDQSDIVSTMEHYYTAF
